Each structure is given as a SMILES string. In all, about 52,000 compounds went through this assay and about 1,700 (3.3%) were called active. Cut-off read from the data, not from the text of the source: active = survival mostly below about 52% (no sharp cut-off); inactive = mostly above about 56%. The list shows a part of the results.

For the assay, the system named is Wild type. As to the kind of experiment: S. aureus survival, RN4220 and DeltatarO strains – OD600, teichoic acid synthesis inhibitors, primary screen (AID 463173). The settings on record: S. aureus RN4220 wild type/DeltatarO growth, OD600, 18 h, stronger effect = lower value, screened at 18.75 µg/mL (by protocol).
With `COc1ccc(OC)c(CNC(=O)NCc2noc3ccc(C)cc23)c1`, the survival was inactive: 112%.

For the molecule `Cc1cc(Nc2cccc(Cl)c2)nc2ccc(NC(=O)COc3ccc(Cl)cc3)cc12`, the survival is inactive: 94%. Turning to `Cc1c(N2C(=O)CSC2=S)c(=O)n(-c2ccccc2)n1C`, the survival was inactive: 116%. On to `CCOC(=O)C1=C2SCCN2C(=O)C(C#N)C1(C)C` (stereo not given), for which the survival was inactive: 105%. For the molecule `CCOC(=O)c1[nH]c2ccc(C)cc2c1NC(=O)OC`, the survival was inactive: 116%. The value for `CCN1C(=O)c2ccccc2S(=O)(=O)c2ccc(C(=O)NCc3ccccc3OC)cc21` was inactive: 78%. For `CC(C)c1ccc(NC(=O)c2cc3c(=O)[nH]c4ccccc4c3n2C)cc1`, the survival was inactive: 76%. As to `O=C(CSc1cn(CC(=O)N2CCCCC2)c2ccccc12)NCc1ccccc1Cl`, the survival is inactive: 86%. The value for `COc1ccc(C2/C(=C(\O)c3ccc(C)cc3)C(=O)C(=O)N2CCC(=O)O)cc1` (stereo not given) was inactive: 114%; that for `CCC1CN(C(=O)N2CCC(C(=O)NCc3cccc(F)c3)CC2)c2cc(C)ccc2O1` (stereo not given) was inactive: 87%. The value for `COC(=O)Cn1c(O)c(N=NC(=O)C2COc3ccccc3O2)c2ccccc21` (stereo not given) was inactive: 102%. The value for `Cc1ccc(-n2nc(C)c3c(C(=O)NCCc4ccc(S(N)(=O)=O)cc4)cc(C)nc32)cc1` was inactive: 128%; that for `Cc1nn(-c2ccccc2)c(Cl)c1/C=N/NC(=O)c1cccnc1` was inactive: 103%; that for `O=C(CN1C(=O)c2cccnc2Sc2ccccc21)Nc1cc(F)ccc1F` was inactive: 71%.

For `COc1ccccc1CNC(=O)c1cc(S(=O)(=O)N2CCCC(C)C2)cn1C` (stereo not given), the survival is inactive: 66%. The value for `C1=CCC(CN2CCNCC2)CC1` (stereo not given) was inactive: 98%; that for `CCCCN(C)CCCNC(=O)c1cn(CC)c2ccc(S(=O)(=O)N3CCc4ccccc4C3)cc2c1=O` was inactive: 77%; that for `COc1ccc(NC(=O)Nc2cc(C(=O)NCc3ccc(C)cc3)ccc2N2CCCC2)cc1` was inactive: 73%. Take `Cc1ccc(-n2nc(C)c3c(C(F)(F)F)cc(-c4cccnc4)nc32)cc1C`: the survival was inactive: 81%.

As for `Cc1ccc2oc(-c3ccc(NC(=O)c4oc5ccc(Cl)cc5c4C)cc3)nc2c1`, the survival was inactive: 73%. The value for `CCc1ccc(NC(=O)CC2C(=O)N(c3ccc(F)cc3)C(=O)N2Cc2ccc(F)cc2)cc1` (stereo not given) was inactive: 76%; that for `O=C(c1cnn(-c2ccc(F)cc2)c1-n1cccc1)N1CCN(c2ccccc2)CC1` was inactive: 78%; that for `Cc1cccc(NC(=O)Cn2c(SCC(=O)NCc3ccccc3)nc3ccccc32)c1C` was inactive: 131%. The value for `CCOc1ccc(-c2cn3nc(CC(C)C)sc3n2)cc1` was inactive: 107%; that for `CNC(=O)CCC(=O)Nc1ccc(C)cc1` was inactive: 106%. The value for `O=C(NCCSCc1ccccc1)C1CCN(S(=O)(=O)Cc2ccccc2)CC1` was inactive: 93%; that for `CCN(CC)c1ccc(C2C(C(N)=O)=C(C)Nc3nc(SCc4ccccc4Cl)nn32)cc1` (stereo not given) was inactive: 149%. `CCOC(=O)c1ccc(N=C2SC(C(=O)Nc3ccccc3)CC(=O)N2C)cc1` (stereo not given): the survival was inactive: 91%. With `COc1ccc(C)cc1NS(=O)(=O)c1ccc2oc(=O)c3ncn(C)c3c2c1`, the survival was inactive: 98%.

As for `COc1ccc(CC2=C(C)C(=O)N(c3ccc(OC)cc3)C2=O)cc1`, the survival was inactive: 97%. The value for `COc1ccc(CNC(=O)C2(c3cccs3)CCOCC2)cc1` was inactive: 59%.

As for `CCN(CC)S(=O)(=O)c1cccc(C(=O)Nc2ccccc2C(=O)Nc2ccc(OC)cc2)c1`, the survival is inactive: 77%.

`CCOC(=O)C1=C(CN2CCN(c3ccc(C)cc3C)CC2)NC(=O)NC1c1ccc(OC)cc1` (stereo not given): the survival is inactive: 99%.

In the case of `Cc1ccccc1-c1nc(CN2CCC(C(=O)NC(C)C)CC2)c(C)o1`, the survival is inactive: 96%.

As for `CCCCc1nn2c(=O)cc(COC(=O)CNC(=O)COc3ccc(C)cc3)nc2s1`, the survival is inactive: 74%. The value for `CCOc1ccc(NC(=O)c2c(NCc3cccs3)sc3c2CCC(C)C3)cc1` (stereo not given) was inactive: 152%; that for `COc1ccc(N2CCN(CC(O)COc3c(OC)cccc3OC)CC2)cc1` (stereo not given) was inactive: 81%. As to `Cc1ccc(NC(=O)Cn2cc(C(=O)c3cccs3)c3ccccc32)cc1C`, the survival is inactive: 103%. The value for `Cc1ccc(C(=O)c2cn(Cc3cccc(F)c3)c3nc(C)ccc3c2=O)cc1` was inactive: 78%.

For `Cc1ccc(-n2c(=O)c3c(cnn3C)n(CC(=O)Nc3cc(C)ccc3C)c2=O)cc1`, the survival was inactive: 76%. The value for `O=C(CCSCc1cnn(-c2ccccc2)c1-n1cccc1)NCc1ccc(Cl)cc1` was inactive: 76%; that for `O=C(CCn1cccn1)Nc1cccc(C(F)(F)F)c1` was inactive: 65%. Take `Cc1oc2ncnc(N3CCOCC3)c2c1C(=O)NCc1ccccc1`: the survival was inactive: 63%. The value for `CCn1c(SCC(=O)N(C2CCCCC2)C2CCCCC2)nnc1C(C)C` was inactive: 100%; that for `COc1ccc(C(=O)NCc2ccc3c(c2)CCN3C(=O)c2cccc(C)c2)cc1OC` was inactive: 123%. `COc1ccc(CCNC(=O)CSc2nc3ccccc3nc2Cc2ccc(Cl)cc2)cc1OC`: the survival is active: 10%.

With `Cc1nc2sccn2c(=O)c1S(=O)(=O)N1CCN(c2ccc(F)cc2)CC1`, the survival was inactive: 82%. The value for `CC(C)Cn1c(-c2ccc(S(=O)(=O)N3CCCC3)cc2)csc1=Nc1ccccc1` was inactive: 71%; that for `CCCN(Cc1cccs1)C(=O)Nc1ccc(Br)c(C)c1` was inactive: 71%. The value for `Cc1cccc(NS(=O)(=O)c2ccc(Cl)c(C(=O)Nc3ccccc3C)c2)c1` was inactive: 69%; that for `CCCCOc1ccccc1NC(=O)Cn1c(-c2cncs2)nc2ccccc21` was inactive: 76%; that for `Cc1oc(-c2ccccc2)nc1CNS(=O)(=O)c1ccc(Cl)cc1` was inactive: 58%.

With `O=C(O)c1ccccc1C1=Nc2ccc(O)cc2Oc2cc(O)ccc21`, the survival was inactive: 110%. The value for `O=C(NC1CC(=O)N(c2ccccc2)C1)c1cc2ccccc2o1` (stereo not given) was inactive: 72%; that for `COc1ccc(OC)c(-n2cnc3cc(C(=O)NC4CCCC4)ccc32)c1` was inactive: 72%; that for `O=C(Nc1nnc(S(=O)(=O)N2CCCC2)s1)c1ccc(F)cc1` was inactive: 110%. The value for `CCCOc1ccc(NC(=O)CC2C(=O)N(c3cccc(C)c3)C(=O)N2CCc2ccncc2)cc1` (stereo not given) was inactive: 94%; that for `CCOc1ccc(-c2cc(C(=O)NCc3ccc(OC)cc3)c3c(-c4ccc(F)cc4)[nH]nc3n2)cc1` was inactive: 73%; that for `O=C(NCc1ccco1)c1cc(-c2ccccc2)on1` was inactive: 118%. The value for `CN1CCN(Cc2c(O)ccc3cc(-c4ccccc4)c(=O)oc23)CC1` was inactive: 119%; that for `Cc1cccc(-c2nc(N3CCN(c4ccc(F)cc4)CC3)c3ccccc3n2)c1` was inactive: 64%; that for `COc1ccc(Nc2nc3c(S(=O)(=O)c4ccccc4)nnn3c3ccc(Cl)cc23)cc1OC` was inactive: 133%. As to `CCOC(=O)c1cccc(NC(=O)c2cc3c(=O)n(Cc4cccnc4)ccc3nc2C)c1`, the survival is inactive: 128%. The value for `CCCCCn1c(=O)[nH]c2cc(C(=O)N3CCN(c4ccccc4F)CC3)ccc2c1=O` was inactive: 74%; that for `Cc1ccc(-n2ncc3c(NCCCn4ccnc4)ncnc32)cc1` was inactive: 71%; that for `CCOC(=O)c1[nH]c2ccccc2c1NC(=O)c1ccc(OCC)cc1` was inactive: 85%. The value for `CCN1CCN(CCCNC(=O)c2cnn(-c3ccc(C)cc3)c2C2CCN(C(=O)OC(C)(C)C)CC2)CC1` was inactive: 91%.

Consider `Cc1ccc(NC(=O)c2cc(-c3cccs3)on2)cc1C`, for which the survival was inactive: 82%. The value for `CC1CCCC(C)N1C(=O)CN1CCC(N2CCCCC2)CC1` (stereo not given) was inactive: 101%; that for `CN(C(=O)c1cnn2c(C(F)F)cc(-c3ccccc3)nc12)C1CCCCC1` was inactive: 110%.

Consider `COc1ccc(S(=O)(=O)NCCS(=O)(=O)N2CCN(c3ccccc3F)CC2)cc1`, for which the survival was inactive: 127%.

With `Cc1sc2ncn(C(C)C(=O)OC3CCCCC3)c(=O)c2c1C` (stereo not given), the survival is inactive: 97%.

With `c1csc(-c2nc3ccccn3c2Nc2ccc3c(c2)OCCO3)c1`, the survival is inactive: 70%. For the molecule `COc1cccc(-n2c(SCC(=O)Nc3ccc(F)cc3F)nc3c([nH]c4ccccc43)c2=O)c1`, the survival was inactive: 124%. In the case of `CCCCOC(=O)c1ccc(NC(=O)CSc2nc3c(c(=O)[nH]2)CCC3)cc1`, the survival is inactive: 87%. The value for `CC(=O)c1ccc(N2CCN(c3ncnc4onc(-c5ccc(Cl)cc5)c34)CC2)cc1` was inactive: 84%; that for `COc1ccccc1CNC(=O)c1cccc(NC(=O)N2CCSc3ncccc32)c1` was inactive: 77%; that for `COc1cc(-c2nc3cccc(C)n3c2Nc2ccc3c(c2)OCCO3)ccc1O` was inactive: 75%. Regarding `Oc1c(C(c2ccc(Cl)cc2)N2CCCC2)sc2nc(-c3ccco3)nn12` (stereo not given), the survival was inactive: 22%. The value for `CCOc1ccccc1C(=O)NCC(c1ccc(N(C)C)cc1)N1CCc2ccccc21` (stereo not given) was inactive: 75%; that for `COc1ccc(CCNC(=O)c2ccc(Cn3c(=O)c4ccccc4n(Cc4ccccc4Cl)c3=O)cc2)cc1OC` was inactive: 95%; that for `COC(=O)c1c(-c2ccc(Cl)cc2)noc1N1CCN(c2cccc(OC)c2)CC1` was inactive: 73%. The value for `CCOc1cc(-c2ccc(OC(=O)c3ccc(Cl)cc3)c(OC)c2)cc(=O)c2c(C)oc(C)c12` was inactive: 63%. The value for `NC(=O)CC1SC(N)=NC1=O` (stereo not given) was inactive: 97%. For `CCc1c(C)nc2[nH]nc(NC(=O)C(F)(F)F)n2c1=O`, the survival was inactive: 108%. With `Cc1nnc(N2C(=O)c3oc4ccccc4c(=O)c3C2c2ccc(F)cc2)s1` (stereo not given), the survival was inactive: 79%.

With `COc1cc(N(C(=O)c2cnccn2)C(C(=O)NCc2ccccc2)c2cccs2)ccc1-n1cnnn1` (stereo not given), the survival is inactive: 111%.

Take `Cc1c(C(=O)NCc2ccc(F)cc2)sc2nc(-c3ccccc3)cn12`: the survival was inactive: 143%.

For the molecule `Cc1cccc(NC(=O)CN(C)S(=O)(=O)c2cnc[nH]2)c1C`, the survival was inactive: 75%. The value for `O=C(Cc1ccc(NC(=O)N2CCCCc3ccccc32)cc1)Nc1ccccc1Br` was inactive: 89%.

The values above are taken from PubChem BioAssay AID463173 (ICCB-Longwood Screening Facility, Harvard Medical School, 2010).
